The values that follow come from the GPR68 mutational scans of Howard et al. (2025).

Scores whose standard error is large were omitted. Two further conditions of the source, in which the scores hardly spread, are not listed. Read del as a deletion of the residues named and ins as an insertion between two positions. For part of these data: How much ogerin was present is not stated here.

To fix the notation:
B1: GPR68, Q15743 (parent)
chain: MGNITADNSSMSCTIDHTIHQTLAPVVYVTVLVVGFPANCLSLYFGYLQIKARNELGVYLCNLTVADLFYICSLPFWLQYVLQHDNWSHGDLSCQVCGILLYENIYISVGFLCCISVDRYLAVAHPFRFHQFRTLKAAVGVSVVIWAKELLTSIYFLMHEEVIEDENQHRVCFEHYPIQAWQRAINYYRFLVGFLFPICLLLASYQGILRAVRRSHGTQKSRKDQIQRLVLSTVVIFLACFLPYHVLLLVRSVWEASCDFAKGVFNAYHFSLLLTSFNCVADPVLYCFVSETTHRDLARLRGACLAFLTCSRTGRAREAYPLGAPEASGKSGAQGEEPELLTKLHPAFQTPNSPGSGGFPTGRLA

Variants of B1 are the subject of series [1]. Description: cAMP reporter score (Enrich2 score, wild type = 0); higher = more signal; HEK293T, FACS bins.
Variants of B1 are the subject of series [2]. The experiment in a line: surface expression score (Enrich2 score, wild type = 0); higher = more signal; HEK293T, FACS bins.

In the case of F265_N266insGS, the cAMP reporter score in series [1] (pH 5.5) was -0.587; in series [1] (pH 6) it was -0.059; in series [1] (pH 6, modulator: ogerin), 0.238; in series [1] (pH 6.5, modulator: ogerin), -0.669. Also, in series [2], the surface expression score was -0.204.
For the variant H269C, the cAMP reporter score in series [1] (pH 5.5) is -1.05; in series [1] (pH 6), -0.563; in series [1] (pH 6, modulator: ogerin), -1.13; in series [1] (pH 6.5, modulator: ogerin), -0.863. Also, the surface expression score in series [2] amounted to 0.322.
In the case of H269P, the cAMP reporter score in series [1] (pH 5.5) was 0.485; in series [1] (pH 6) it was -0.953; in series [1] (pH 6.5, modulator: ogerin) it was -0.496. The surface expression score in series [2] is -2.31.
As to H269W, the cAMP reporter score in series [1] (pH 5.5) was -0.906; in series [1] (pH 6), -0.727; in series [1] (pH 6, modulator: ogerin), -1.31; in series [1] (pH 6.5, modulator: ogerin), -1.54. The surface expression score in series [2] was determined as 0.226.
For the variant H269F, the cAMP reporter score is -0.889 in series [1] (pH 5.5); 0.049 in series [1] (pH 6); -0.833 in series [1] (pH 6, modulator: ogerin); -1.23 in series [1] (pH 6.5, modulator: ogerin). Besides, in series [2], the surface expression score was found to be 1.34.
As to H269Y, the cAMP reporter score is -1.33 in series [1] (pH 5.5); -0.648 in series [1] (pH 6); -1.65 in series [1] (pH 6, modulator: ogerin); -1.34 in series [1] (pH 6.5, modulator: ogerin). The surface expression score in series [2] was -0.894.
The corresponding values for H269L are -1.03, -1.44, -1.04, -0.313 and 1.31.
Turning to H269V, the cAMP reporter score in series [1] (pH 5.5) was -1.04; in series [1] (pH 6), -0.701; in series [1] (pH 6, modulator: ogerin) it was -1.22; in series [1] (pH 6.5, modulator: ogerin), -1.23. Also, in series [2], the surface expression score came to 1.09.
On the same counts, the results for H269T are -0.148, -0.473, -1.67, -0.652 and 0.954.
With H269D, the cAMP reporter score was -1.15 in series [1] (pH 5.5); -1.03 in series [1] (pH 6); -1.06 in series [1] (pH 6, modulator: ogerin); -0.921 in series [1] (pH 6.5, modulator: ogerin). Moreover, the surface expression score in series [2] is 0.3.
Regarding H269G, the cAMP reporter score in series [1] (pH 5.5) is -1.63; in series [1] (pH 6), -0.08; in series [1] (pH 6, modulator: ogerin), -1.53; in series [1] (pH 6.5, modulator: ogerin) it was -0.858. For the same variant, the surface expression score in series [2] is -0.616.
H269A: the cAMP reporter score in series [1] (pH 5.5) is 0.253; in series [1] (pH 6), -0.746; in series [1] (pH 6, modulator: ogerin), -0.324; in series [1] (pH 6.5, modulator: ogerin), -0.858. Also, the surface expression score in series [2] was found to be 1.88.
Turning to H269S, the cAMP reporter score in series [1] (pH 5.5) was -1.52; in series [1] (pH 6) it was -0.982; in series [1] (pH 6, modulator: ogerin), -0.883; in series [1] (pH 6.5, modulator: ogerin), -0.9. Further, the surface expression score in series [2] was -0.097.
For the variant H269Q, the cAMP reporter score in series [1] (pH 5.5) is -0.932; in series [1] (pH 6), -1.49; in series [1] (pH 6, modulator: ogerin), -1.22; in series [1] (pH 6.5, modulator: ogerin) it was -1.53. Further, in series [2], the surface expression score is 0.109.
Turning to H269M, the cAMP reporter score in series [1] (pH 5.5) was -1.1; in series [1] (pH 6) it was -0.681; in series [1] (pH 6, modulator: ogerin), -1.15; in series [1] (pH 6.5, modulator: ogerin), -0.938. The surface expression score in series [2] was 0.878.
For H269N, the cAMP reporter score in series [1] (pH 5.5) is -1.36; in series [1] (pH 6) it was -0.874; in series [1] (pH 6, modulator: ogerin), -0.762; in series [1] (pH 6.5, modulator: ogerin) it was -0.839. In series [2], the surface expression score is 0.026.
As to H269I, the cAMP reporter score in series [1] (pH 5.5) was -0.758; in series [1] (pH 6), -1.07; in series [1] (pH 6, modulator: ogerin), -1.79; in series [1] (pH 6.5, modulator: ogerin) it was -0.71. Moreover, in series [2], the surface expression score turned out to be 0.946.
As for H269E, the cAMP reporter score was -0.736 in series [1] (pH 5.5); -0.482 in series [1] (pH 6); 0.725 in series [1] (pH 6, modulator: ogerin). Further, the surface expression score in series [2] stood at 1.67.
With H269R, the cAMP reporter score in series [1] (pH 5.5) is 0.095; in series [1] (pH 6), -0.062; in series [1] (pH 6, modulator: ogerin) it was 0.207; in series [1] (pH 6.5, modulator: ogerin) it was 0.513. In series [2], the surface expression score was -0.838.
In the case of H269K, the cAMP reporter score in series [1] (pH 5.5) was found to be 1.76; in series [1] (pH 6), 2.22; in series [1] (pH 6, modulator: ogerin), 1.84; in series [1] (pH 6.5, modulator: ogerin), 5.34. Besides, the surface expression score in series [2] is -0.867.
Take L273_L274insGS: the cAMP reporter score was -0.58 in series [1] (pH 5.5); -1.7 in series [1] (pH 6); -2.17 in series [1] (pH 6, modulator: ogerin); -1.1 in series [1] (pH 6.5, modulator: ogerin). In series [2], the surface expression score is -2.51.
As to A261_K262insG, the cAMP reporter score is -1.4 in series [1] (pH 5.5); -1.25 in series [1] (pH 6); -1.76 in series [1] (pH 6, modulator: ogerin); -1.42 in series [1] (pH 6.5, modulator: ogerin). Further, in series [2], the surface expression score was 0.211.
The corresponding values for L274del are -1.24, -1.26, -1.04, -0.491 and -2.3.
Take F270_S271insGSG: the cAMP reporter score in series [1] (pH 5.5) was -2.08; in series [1] (pH 6) it was -0.668; in series [1] (pH 6, modulator: ogerin) it was -1.06; in series [1] (pH 6.5, modulator: ogerin), -1.2. For the same variant, in series [2], the surface expression score was -1.02.
A267del: the cAMP reporter score is -0.586 in series [1] (pH 5.5); -1.05 in series [1] (pH 6); -1 in series [1] (pH 6, modulator: ogerin); -0.925 in series [1] (pH 6.5, modulator: ogerin). In addition, the surface expression score in series [2] is -2.17.
On to A261del, for which the cAMP reporter score in series [1] (pH 5.5) is 0.3; in series [1] (pH 6), -0.391; in series [1] (pH 6, modulator: ogerin), 0.567; in series [1] (pH 6.5, modulator: ogerin), 0.155. For the same variant, the surface expression score in series [2] amounted to 0.201.
Consider V264_F265insGS, for which the cAMP reporter score in series [1] (pH 5.5) is -1.27; in series [1] (pH 6), -0.431; in series [1] (pH 6, modulator: ogerin), -1.9; in series [1] (pH 6.5, modulator: ogerin) it was -0.58. Moreover, in series [2], the surface expression score was -2.14.
On the same counts, the results for K262_G263del are -1.09, -1.17, -2.31, -0.493 and -0.282.
With G263C, the cAMP reporter score in series [1] (pH 5.5) is -0.475; in series [1] (pH 6) it was -0.648; in series [1] (pH 6, modulator: ogerin) it was -0.535; in series [1] (pH 6.5, modulator: ogerin), -0.508. Further, the surface expression score in series [2] was -0.513.
On to G263T, for which the cAMP reporter score turned out to be 0.308 in series [1] (pH 5.5); 1.97 in series [1] (pH 6, modulator: ogerin); 1 in series [1] (pH 6.5, modulator: ogerin). Moreover, the surface expression score in series [2] worked out at 0.906.
